90 compounds from PubChem BioAssay AID463173 (ICCB-Longwood Screening Facility, Harvard Medical School, 2010) can be followed below.

Each structure is given as a SMILES string. The whole screen tested about 52,000 compounds, of which about 4,300 (8.3%) were called active. Cut-off read from the data, not from the text of the source: active = survival mostly below about 52% (no sharp cut-off); inactive = mostly above about 56%. Some of the results follow.

The assay has as its system DeltatarO mutant. Description: S. aureus survival, RN4220 and DeltatarO strains – OD600, teichoic acid synthesis inhibitors, primary screen (AID 463173). The note with it: S. aureus RN4220 wild type/DeltatarO growth, OD600, 18 h, active compounds read low, screened at 18.75 µg/mL (by protocol).
For the compound `COc1ccc(NC(=O)Cn2cc(S(=O)(=O)c3ccc(C)cc3)c(=O)c3ccccc32)cc1OC`, the survival is inactive: 62%. For `COc1ccc(-c2noc(-c3ccc(NCc4ccco4)c([N+](=O)[O-])c3)n2)cc1` the value was inactive: 43%; for `CCOC(=O)c1cccc(NC(=O)CCc2c(C)nc3cc(-c4ccc(Cl)cc4)nn3c2C)c1`, active: 35%.

With `CCc1nnc(SCC(=O)N(C)c2ccccc2)c2cc3sccc3n12`, the survival was inactive: 74%. For `O=C(CCCn1c(=O)c2cccn2c2ccc(F)cc21)NCCc1ccccc1` the value was active: 47%; for `CCOC(=O)CSc1nc2ccc(NC(=O)c3ccc(F)cc3)cc2s1`, inactive: 84%; for `Cc1ccc(Cl)cc1NC(=O)Nc1c(C)n(C)n(-c2ccccc2)c1=O`, inactive: 128%.

As for `Cc1csc(NC(=O)c2c(O)c3cccc4c3n(c2=O)CCC4)n1`, the survival is inactive: 88%. The value for `COc1ccc(N/C=C\C(=O)c2ccc3c(c2)OCO3)cc1` was inactive: 92%; that for `NN(CCC(=O)N1CCCCC1)C1=NS(=O)(=O)c2ccccc21` was inactive: 92%; that for `O=C1COc2ccccc2N1Cc1ccc(OC(F)(F)F)cc1` was inactive: 86%.

With `Cc1ccc([C@H]2Nc3ccc(S(=O)(=O)Nc4cccc(Cl)c4C)cc3[C@H]3C=CC[C@H]32)cc1`, the survival was inactive: 50%.

As to `CCn1cc(CCC(=O)NCc2ccc(F)cc2)c2ccccc21`, the survival was inactive: 66%. Take `S=c1nc(Cc2cccs2)[nH]c2ccccc12`: the survival was inactive: 100%. Turning to `Cc1ccc(Nc2nnc(-c3ccc(C)c(S(=O)(=O)N4CCN(C)CC4)c3)c3ccccc23)c(C)c1`, the survival is inactive: 90%. As to `CCCCNS(=O)(=O)c1ccc(N)cc1`, the survival is inactive: 55%. With `Cc1cc(C)c(Cn2c(CCNC(=O)c3ccco3)nc3ccccc32)c(C)c1`, the survival is inactive: 59%. Consider `CCCn1c(=O)n(-c2cc(Cl)c(OC)cc2OC)c(=O)c2c3c(sc21)CN(C(C)=O)CC3`, for which the survival is inactive: 62%. On to `COc1ccc(C(=O)Nc2cc(C(C)C)c(O)c(S(=O)(=O)c3ccc(OC)cc3)c2C)cc1`, for which the survival is inactive: 82%. Take `c1ccc(Cc2nnc(SCc3nc(-c4cccs4)no3)n2-c2ccccc2)cc1`: the survival was inactive: 56%. For `Cc1ccccc1N1CCN(S(=O)(=O)c2nnc(NC(=O)c3ccccc3)s2)CC1` the value was active: 26%; for `CC(C)C(=O)Nc1cccc(C(=O)NCc2ccc3c(c2)OCO3)c1`, inactive: 93%; for `COc1ccc(S(=O)(=O)c2c(Nc3ccc(F)cc3)sc(C(=O)c3ccc(C)cc3C)c2N)cc1`, inactive: 123%. For the compound `COc1cccc(NC(=O)c2sc3nc(C)c(C(=O)Nc4ccc(C)cc4C)c(-c4sccc4C)c3c2N)c1`, the survival is inactive: 78%. For the compound `O=c1c2oc3ccccc3c2n(Cc2cccc(F)c2)c(=O)n1Cc1ccco1`, the survival is inactive: 75%. As for `CC(C)c1ccc2oc(-c3cc(NC(=O)c4cccs4)ccc3Cl)nc2c1`, the survival was active: 16%.

As to `CCCN(C(=O)c1nn(-c2ccc(OC)c(Cl)c2)c(=O)c2c1c1ccccc1n2C)c1ccccc1F`, the survival was inactive: 69%.

With `Cc1ccccc1C(=O)NC1CCN(CC(=O)N2CCCCC2C)CC1` (stereo not given), the survival was inactive: 91%. The value for `COc1ccc(NC(=O)c2ccc3c(=O)n4nc(Nc5cc(C)ccc5C)sc4nc3c2)cc1` was inactive: 116%; that for `COc1ccc(OC)c(NC(=O)Cn2cnc3sc(C)c(S(=O)(=O)N4CCN(c5ccccc5OC)CC4)c3c2=O)c1` was inactive: 69%; that for `CCOc1ccccc1CNC(=O)C1CCN(C2=NS(=O)(=O)C(c3ccc(C)c(C)c3)=C2C)CC1` was inactive: 84%. For `CC1CC(C)CN(C(=S)Nc2ccccc2)C1` (stereo not given) the value was inactive: 108%. For `COc1cccc(C(C(=O)NCc2ccco2)N(C(=O)Cn2nnc3ccccc32)C2CC2)c1OC` (stereo not given) the value was inactive: 107%. For the compound `COc1ccc(C(=O)N2CCC(c3nc4ccccc4o3)CC2)cc1`, the survival was inactive: 75%. Take `CCOc1ccc(C(=O)NCCc2csc(-c3ccc(C(F)(F)F)cc3)n2)cc1OCC`: the survival is inactive: 100%. The value for `Cc1ccc(-c2cnc(NC(=O)CCC(=O)N3CCCCC3)n2C)cc1` was inactive: 91%; that for `Cc1cccc(-c2c3c(=O)n(C)c(=O)n(C)c3cn2-c2cc(N)c(Cl)cc2Cl)c1` was inactive: 49%; that for `O=C(Nc1ccc(N2CCCC2)cc1)c1ccc(Br)o1` was inactive: 62%. On to `N#Cc1ccccc1CN1c2cccc3cccc(c23)S1(=O)=O`, for which the survival was inactive: 106%. On to `CN(C)c1oc(/C=C/c2ccc(F)cc2)nc1C#N`, for which the survival is inactive: 74%. For the compound `CCOC(=O)c1c(C)n(CCNC(C)=O)c2cc(Br)c(OC)cc12`, the survival is inactive: 106%.

On to `CC(=O)c1ccc(NC(=O)Nc2nnc(N3CCCC(C)C3)s2)cc1` (stereo not given), for which the survival was inactive: 49%. The value for `CCN(c1ccccc1)c1nnc(NC(=O)Nc2cccc(Cl)c2C)s1` was inactive: 92%. The value for `Nc1cc(=O)nc(SCC(=O)Nc2cccc(Cl)c2)n1CCc1ccccc1` was inactive: 76%; that for `CSc1ccc(-c2nc3ncccn3c2Nc2ccc(C)c(C)c2)cc1` was inactive: 62%; that for `COc1ccc(C2=CC(c3ccccc3F)n3ncc(C(=O)Nc4ccc(C)cc4)c3N2)cc1` (stereo not given) was inactive: 107%. For `CCC(=O)Nc1ccc(S(=O)(=O)NCc2ccc3c(c2)CCN3C(=O)c2ccc(C)cc2)cc1`, the survival is inactive: 94%. For `CCN(CC)C(=O)c1sc(NC(=O)C(C)Sc2nc(-c3ccccc3)cc(C(F)(F)F)n2)c(C(=O)OC)c1C` (stereo not given) the value was inactive: 136%; for `CC1(CCC#N)N=C(SCCC#N)N(c2ccccc2)C1=O` (stereo not given), inactive: 71%; for `COc1ccccc1Cn1ccn(Cc2c(F)cccc2Cl)c(=O)c1=O`, inactive: 110%. With `CCc1c(C)nc(SCC(=O)N(C(C)C)C(C)C)[nH]c1=O`, the survival is inactive: 81%.

In the case of `COC(=O)c1ccccc1NC(=O)CCC(=O)N1CCOc2ccccc21`, the survival was inactive: 65%. For the compound `CCOC(=O)c1c(-c2ccccc2)csc1NC(=O)c1nc(S(=O)(=O)CC)ncc1Cl`, the survival is active: 11%. The value for `CC(C)(C)NS(=O)(=O)c1ccc2oc3ccc(S(=O)(=O)NC(C)(C)C)cc3c2c1` was inactive: 86%; that for `Cc1ccc(-n2cccn2)cc1` was inactive: 92%.

For `Cc1noc(/C=C/N(C)C)c1S(=O)(=O)N1CCCC(C(=O)Nc2ccc(F)cc2F)C1` (stereo not given), the survival was inactive: 86%.

As to `COc1ccc(NC(=O)Nc2sc3nc4n(c(=O)c3c2C)CCC(C)CC4)cc1OC` (stereo not given), the survival was inactive: 94%. For `Cc1c2cnn(CC(=O)NCc3ccc(F)cc3)c(=O)c2c(C)n1Cc1ccccc1F` the value was inactive: 90%; for `Cc1nc2c(C(=O)NCCc3ccccc3)cnn2c(C)c1Cc1c(F)cccc1Cl`, inactive: 79%. Regarding `CC(C)(C)OC(=O)N1CCC(c2c(C(=O)NCc3cccs3)cnn2-c2ccc(F)cc2F)CC1`, the survival was inactive: 72%. The value for `COc1ccc(Cl)cc1Nc1ncnc2c1c(-c1ccccc1)cn2-c1ccccc1` was inactive: 129%; that for `CCOCCCNC(=O)c1cc2c(-c3ccc(OC)c(OC)c3)nn(C)c2s1` was inactive: 89%; that for `COCCN1CCc2nc(SCC(=O)Nc3ccc(Br)cc3)[nH]c(=O)c2C1` was inactive: 79%. For `N#CC(Cc1cccs1)c1nc2ccccc2[nH]1` (stereo not given) the value was inactive: 105%. The value for `Cc1ccc(CNS(=O)(=O)c2cc(C(=O)Nc3cccc(C(F)(F)F)c3)ccc2F)cc1` was inactive: 87%; that for `COc1ccc(S(=O)(=O)N2Cc3ccccc3CC2C(=O)N2CCOCC2)cc1OC` (stereo not given) was inactive: 87%; that for `O=C(c1ccco1)N1CCN(C(c2coc3ccc(Cl)cc3c2=O)c2nnnn2C2CCCC2)CC1` (stereo not given) was inactive: 76%. For the compound `CCS(=O)(=O)c1ncc(Cl)c(C(=O)N2CCN(c3cccc(Cl)c3)CC2)n1`, the survival was active: 8%.

As to `Fc1ccc(C(c2nnnn2Cc2ccccc2)N2CCSCC2)cc1` (stereo not given), the survival was inactive: 97%. As to `NC(=O)C1(N2CCCCC2)CCN(C(=O)Nc2ccc(C(F)(F)F)cc2)CC1`, the survival is inactive: 112%.

Regarding `CCN(CC)c1nc(-c2ccccc2)nc2ccccc12`, the survival is inactive: 86%.

With `Cc1ccc(NCc2ccccc2-c2nnc(-c3ccccc3Cl)o2)c(C)c1`, the survival is inactive: 83%. For `COc1ccccc1NC(=O)Cn1c(=O)n(Cc2ccco2)c(=O)c2cccnc21` the value was inactive: 74%; for `Cc1cc(-c2ccc(C)c(S(=O)(=O)N(C)c3ccc(C)c(C)c3)c2)on1`, inactive: 86%. Consider `O=S(=O)(c1ccccc1)N(c1cccnc1)S(=O)(=O)c1ccccc1`, for which the survival is inactive: 73%. The value for `CCc1cc2ccccc2nc1SCC(=O)N1CCCC1` was inactive: 59%. `COC(=O)c1ccc(NCC(=O)c2ccccc2)cc1`: the survival is active: 64%. As to `Cc1ccc(OCCCn2c(CCNC(=O)C3CCCCC3)nc3ccccc32)c(C)c1`, the survival is inactive: 64%. With `COc1ccc(OC)c(NC(=O)CN2C(=O)c3ccccc3Sc3ccc(C(=O)N4CCCC4)cc32)c1`, the survival was inactive: 109%. In the case of `COc1ccc(N(Cc2cccs2)C(=O)Nc2ccccc2)cc1`, the survival was inactive: 75%.

On to `Cc1cc(C)c2c(=O)cc(CSc3nnc(COc4ccccc4C)n3C)[nH]c2c1`, for which the survival was inactive: 85%.

Take `C1CCCN(c2nc3nonc3nc2N2CCCCCC2)CC1`: the survival was inactive: 67%. The value for `Cc1ccc2c(c1)c1c(c(=O)n(-c3ccccc3C)c(=O)n1CC(=O)NCc1ccccc1)n2C` was inactive: 80%; that for `O=c1cc(-c2ccccc2)c2cc(Cl)c3c(c2o1)CN(Cc1ccccc1)CO3` was inactive: 89%; that for `COc1ccc(CC(=O)NCc2ccc3c(c2)CCN3C(=O)c2ccc(Cl)cc2)cc1OC` was inactive: 86%.

On to `COc1cc(-c2nc3ccc(Cl)cn3c2NC(C)(C)C)ccc1O`, for which the survival is inactive: 80%. Regarding `CCc1ccc(CNC(=O)c2cc(-c3ccc(Br)s3)nc3ccccc23)cc1`, the survival is active: 60%. Take `CCCOc1ccc(C2C(=O)N(C3CCC(C)CC3)CC(=O)N2CCC2=CCCCC2)cc1OC` (stereo not given): the survival is inactive: 80%. Take `COc1cccc(-c2ccc3c(N)c(C(=O)NCc4ccc(Cl)cc4)sc3n2)c1`: the survival was active: 41%. The value for `COc1ccc(OC)c(-c2cc(C(=O)NC(C)c3ccccc3)no2)c1` (stereo not given) was active: -14%.
